Screen size: about 310,000 compounds; about 14,000 (4.5%) showed an effect of 50% or more. The effect is printed as a negative number. This is one part of the list.
Target: human ether-à-go-go-related gene (hERG) potassium channel (human, UniProt Q12809)
Experiment: primary screen, population patch clamp on CHO cells stably expressing hERG
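Note: peak tail current of the secondary pulse compared with the same well before compound.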

Chain of human ether-à-go-go-related gene (hERG) potassium channel (Q12809 whole entry, looked up): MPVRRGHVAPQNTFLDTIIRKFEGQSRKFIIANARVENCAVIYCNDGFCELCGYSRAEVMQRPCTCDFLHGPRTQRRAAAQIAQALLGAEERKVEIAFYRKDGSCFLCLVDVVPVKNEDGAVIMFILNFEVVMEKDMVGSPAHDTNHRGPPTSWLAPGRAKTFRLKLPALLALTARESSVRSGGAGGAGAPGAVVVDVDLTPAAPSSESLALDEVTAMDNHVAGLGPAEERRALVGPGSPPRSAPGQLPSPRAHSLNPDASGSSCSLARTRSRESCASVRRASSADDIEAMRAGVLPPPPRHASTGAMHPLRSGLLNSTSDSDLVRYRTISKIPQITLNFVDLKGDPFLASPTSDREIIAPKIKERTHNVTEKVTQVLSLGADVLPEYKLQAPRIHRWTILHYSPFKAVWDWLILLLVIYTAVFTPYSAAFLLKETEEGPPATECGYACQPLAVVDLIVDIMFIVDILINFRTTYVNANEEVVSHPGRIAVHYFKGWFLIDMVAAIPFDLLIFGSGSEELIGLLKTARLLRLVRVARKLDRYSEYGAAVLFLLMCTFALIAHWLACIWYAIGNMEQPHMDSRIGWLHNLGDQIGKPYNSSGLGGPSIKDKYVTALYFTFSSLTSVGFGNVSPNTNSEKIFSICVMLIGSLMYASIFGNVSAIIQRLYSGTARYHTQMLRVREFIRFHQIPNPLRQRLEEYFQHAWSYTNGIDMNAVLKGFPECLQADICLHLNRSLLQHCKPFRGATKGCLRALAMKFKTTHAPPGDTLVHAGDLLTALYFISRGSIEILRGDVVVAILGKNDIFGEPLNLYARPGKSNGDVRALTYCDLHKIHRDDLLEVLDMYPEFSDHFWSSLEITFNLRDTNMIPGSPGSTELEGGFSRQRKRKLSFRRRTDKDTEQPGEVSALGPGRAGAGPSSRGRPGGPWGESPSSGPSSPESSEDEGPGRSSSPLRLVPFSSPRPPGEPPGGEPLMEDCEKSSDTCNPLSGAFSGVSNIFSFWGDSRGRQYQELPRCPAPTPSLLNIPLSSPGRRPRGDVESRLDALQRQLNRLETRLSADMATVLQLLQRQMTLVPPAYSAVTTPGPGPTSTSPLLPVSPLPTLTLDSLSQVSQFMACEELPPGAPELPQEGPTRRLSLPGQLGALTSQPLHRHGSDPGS

Structure (SMILES)	hERG current change (%, negative = inhibition) at 10uM
O=C(NCCc1ccccc1)C1CCC(Cn2c(=O)c3ccccc3n(Cc3cccc(Cl)c3)c2=O)CC1 (stereo not shown)	10.9%
Cc1ccc(N=C2NC(=O)S/C2=C\c2ccco2)cc1	6.9%
O=C(O)C1(c2ccc(Cl)cc2)CCC1	3.46%
Cc1cc(-c2n[nH]c(=S)n2/N=C/c2ccco2)n[nH]1	7.99%
NC(=O)C1(N2CCCCC2)CCN(C(=O)CCCn2c(=O)[nH]c3ccsc3c2=O)CC1	4.45%
O=S(=O)(Nc1ccccn1)c1cccc(S(=O)(=O)c2ccc(Cl)cc2)c1	0.562%
CC(C)C(=O)NNC(=O)c1ccccn1	9.18%
Cc1cc(C)cc(N2C(=O)NC(=O)/C(=C/c3cccn3-c3ccc(Cl)cc3)C2=O)c1	6.93%
C/C(=N\NC(N)=O)c1ccccc1	44.4%
COc1ccc(-n2cnnc2SC(C)C(=O)Nc2cccc([N+](=O)[O-])c2)cc1 (stereo not shown)	-59.3%
CN(C)c1ccc(/C=C(\C#N)c2ccccn2)cc1	-6.97%
Nc1ccc(C(=O)N2CCCC2)cc1CS(=O)(=O)c1ccc(Cl)cc1	-4.18%
COc1ccc(-n2c(-c3ccco3)nc3c(cnn3-c3ccccc3C)c2=O)cc1	6.61%
OCCC1CN(CC#Cc2ccccc2)CCN1Cc1ccccc1F (stereo not shown)	-7.93%
CCCCn1c(N)c(N(CCOC)C(=O)COC(=O)COc2ccc(CC)cc2)c(=O)[nH]c1=O	1.17%
CCN1CCN(CC(O)COCc2cc(OC)c(OC)c(OC)c2)CC1.Cl (stereo not shown)	22.2%
CCc1n(CC(O)COCc2ccccc2)c2ccccc2[n+]1C.[I-] (stereo not shown)	13.5%
Cc1ccc2c(c1)/C(=N/N1C(=O)c3ccccc3C1=O)C(=O)N2	4.24%
Cc1ccc(SCC(=O)Nc2ccc(S(N)(=O)=O)cc2)cc1	31.3%
CCCCn1nnc(NC(=O)c2ccco2)n1	0.862%
CC(Sc1nc(-c2ccccc2)cc(C(F)(F)F)n1)C(=O)N1CCC(C(N)=O)CC1 (stereo not shown)	-39%
CCOCCCNC(=O)C(NC(=O)c1ccccc1O)c1ccc(Cl)cc1 (stereo not shown)	0.22%

Structure (SMILES)	hERG current change (%, negative = inhibition) at 10uM
Cc1ccc(-c2nnc(SCC(=O)O)n2N)cc1	-2.12%
CCN1CCN(Cc2nc3c(c(=O)n(C)c(=O)n3C)n2Cc2cccc3ccccc23)CC1	-47.9%
O=C(Cn1nnc(-c2ccc(NC(=O)c3ccccc3F)cc2)n1)NCc1ccc(F)cc1	-2.52%
CN(Cc1c(C(=O)N/N=C/c2cccs2)nnn1-c1nonc1N)c1ccccc1	-0.483%
CC(=O)N1CCCc2ccc(NS(=O)(=O)c3ccc(C)cc3)cc21	-7.31%
CCOCCCNCc1ccc(OC)cc1.O=C(O)C(=O)O	2.56%
O=C1C2CCCN2C(=O)N1CCCCN1CCN(c2cccc(C(F)(F)F)c2)CC1 (stereo not shown)	-60.9%
CC(C)NC(=O)NC(=O)CSc1nncs1	12.8%
Cc1cc(F)ccc1NC(=O)c1cc(S(=O)(=O)N2CCc3ccccc32)cn1C	-8.65%
CC1(C)C(=O)Nc2ccccc2N1C(=O)COC(=O)CSc1ccc(Cl)cc1	18.3%
Cc1cc(C)c(OCC(=O)OCC(=O)NCC2CCCCC2)c(C)c1	7.92%
COc1cccc2c1OC1(C)CC2NC(=O)N1 (stereo not shown)	0.978%
Cc1c(O)ccc(C(=O)CN2CCN(c3ccccc3F)CC2)c1O	22.6%
O=C(CSc1ccc2nnc(-c3ccccn3)n2n1)NCc1ccco1	-63.1%
Cn1ccnc1C(O)c1ccccc1 (stereo not shown)	21.1%
Br.CCc1ccc(C(=O)CN2CCSC2=N)cc1	0.361%
CC(C)CC(=O)Nc1cccc(C(C)O)c1 (stereo not shown)	-8.15%
O=C1NC(=O)c2cc(NC(=O)C3CCCCC3)ccc21	-5.18%
CCn1c(NC(=O)c2cccc(Cn3cc(Cl)cn3)c2)nc2ccccc21	-4.01%
Nc1ccc(C(=O)N/N=C/c2cn(Cc3ccccc3F)c3ccccc23)cc1	12.5%
Nc1nnc(SCC(=O)c2ccc([N+](=O)[O-])cc2)s1	-3.81%
CCCCN1C(=O)C2ON(c3ccccc3C)C(c3ccco3)C2C1=O (stereo not shown)	2.91%

Structure (SMILES)	hERG current change (%, negative = inhibition) at 10uM
Cc1ccccc1NC(=O)COc1coc(CN2CCN(Cc3ccccc3)CC2)cc1=O	-53.3%
COc1ccc(OC)c2c(C)c(C)[nH]c12	-4.4%
S=c1[nH]nc(-c2cccc3ccccc23)n1-c1cccnc1	24.6%
CCCCC(=O)Nc1ccc2c3c(cccc13)C(=O)N2CC	5.28%
CCOC(=O)C1CCN(C(=O)C2CCN(c3nn4c(=O)cc(C)nc4s3)CC2)CC1	3.2%
CN(Cc1ccc(Cl)cc1)C(=O)COC(=O)CSc1ccc([N+](=O)[O-])cc1	-6%
O=C(C1CCC1)N1CCc2cc(S(=O)(=O)Nc3ccc4c(c3)OCCO4)ccc21	17.7%
CCOC1=NN(c2ccccc2)C(=O)/C1=C\N(C)C	-2.73%
Cc1onc(-c2c(F)cccc2Cl)c1C(=O)N1CCCCC1	3.59%
O=C(Nc1ccccc1)N1CCCN(Cc2c(F)cccc2Cl)CC1	-13.3%
CCCCn1c(N)c(N(CC)C(=O)c2cc(Br)ccc2Cl)c(=O)[nH]c1=O	5.91%
O=C(Nc1ccnn1C1CCN(CCCc2ccccc2)CC1)c1ccccc1Cl	-82.2%
COc1ccc(-c2csc(NS(=O)(=O)c3ccc([N+](=O)[O-])cc3)n2)cc1	8.51%
O=[N+]([O-])/C(C(Cl)=C(Cl)Cl)=C(\Nc1ccc(F)cc1)n1cncn1	17.1%
COCCNC(=S)N(Cc1cccs1)Cc1cc2cccc(C)c2[nH]c1=O	11.6%
C[N+]1(CCOS(=O)C23CC4CC(CC(C4)C2)C3)CCOCC1.[Cl-] (stereo not shown)	19.3%
CC(=O)Nc1ccc(S(=O)(=O)N(C)CC(=O)Nc2ccccc2N2CCOCC2)cc1	6.08%
O=C1/C(=C/c2ccc(F)cc2)Oc2cc(OC(=O)N3CCOCC3)ccc21	20.5%
Cc1nn(C)c(C)c1S(=O)(=O)N1CCC(C(=O)NCC2COc3ccccc3O2)CC1 (stereo not shown)	-5.22%
c1ccc2cc(C3N4CCCN34)ccc2c1 (stereo not shown)	22.1%
S=C1CN=C(c2ccccc2Cl)c2cc(Cl)ccc2N1	8.76%
CCc1ccc(-c2cc(C(F)(F)F)n3nc(C(=O)Nc4cnn(Cc5ccccc5C)c4)cc3n2)s1	5.41%

Structure (SMILES)	hERG current change (%, negative = inhibition) at 10uM
CC(C)[C@H](NC(=O)N1c2ccccc2NC(=O)[C@@H]1C(C)C)C(=O)N[C@@H](C(=O)O)c1ccccc1	13%
C=CCn1c(=O)n(CCOC)c(=O)c2sc3ccccc3c21	-12.2%
O=C(CCCn1c(=S)[nH]c2cc3c(cc2c1=O)OCO3)NCc1ccccc1Cl	23.7%
CCCn1nnnc1SCC(=O)Nc1sc(C)c(C)c1C#N	0.801%
Cc1ccccc1-c1ncc(CN2CCN(C3CCCCC3)C(CCO)C2)cn1 (stereo not shown)	-17.4%
CCN(CC)CCNC(=O)CS(=O)Cc1nc(-c2ccc(Cl)cc2)oc1C (stereo not shown)	-29.2%
CN(C)Cc1c(C(=O)N/N=C/c2ccccc2OCc2c(F)cccc2Cl)nnn1-c1nonc1N	21.9%
CCc1nnnn1-c1ccc([N+](=O)[O-])cc1C	10.4%
O=C(O)[C@H]1CCCN1C(=O)c1ccccc1N1C(=O)[C@@H]2Cc3c([nH]c4ccccc34)C(c3cccc(Cl)c3)N2C1=O (stereo partly shown)	12.8%
COC(=O)c1c(C)[nH]c(C(=O)C(C)OC(=O)C2=NNC(=O)CC2)c1C (stereo not shown)	-1.8%
O=C(Cc1cccc(C(F)(F)F)c1)Nc1ccccc1N1CCCC1	4.72%
COCCCN(C(=O)c1ccco1)c1nc(-c2cc(OC)ccc2OC)cs1	-4.07%
CCNC(=O)CN1c2cccc3cccc(c23)S1(=O)=O	0.074%
COc1ccc(CCn2c(=O)[nH]c3cc(C(=O)N4CCN(c5ccccn5)CC4)ccc3c2=O)cc1OC	10.1%
O=C(CN1CCN(C(=O)C2CCCO2)CC1)Nc1c(Cl)cccc1Cl (stereo not shown)	13.8%
O=C(NCc1ccco1)c1cc([N+](=O)[O-])ccc1Cl	11.2%
CC(=O)Nc1c(C(=O)N2CCOCC2)cnn1-c1ccc(C)c(C)c1	9.22%
COc1cc(CN2CCc3ccccc3C2)cc([N+](=O)[O-])c1O	8.65%
COC(=O)[C@H](CCSC)NC(=O)Nc1ccc(C(C)C)cc1	-11.4%
CCS(=O)(=O)c1ccc(O)c(NC(=O)CCCC(=O)O)c1	-10.7%
C=CCOC(=O)C1=C(C)Nc2ncnn2C1c1cccs1 (stereo not shown)	4.21%
O=C(CCC(=O)c1cccs1)NCCc1ccc(F)cc1	0.044%
